Variants at the floor of the assay are shown more often than the library holds them.
B1: TPR 5TU (parent)
chain: GGAUCUUCUCGAUCUAACAAAAAAGACAAAUCUGCCACAAAGCUUGAGAGCAUCUUCGGAUGCAGAGGCGGCAGCCUUCGGUGGCGCGAUAGCGCCAACGUUCUCAACUAUGACACGCAAAACGCGUGCUCCGUUGAAUGGAGUUUAUCAUG

Variants of: B1
Experiment: polymerase ribozyme fitness, log enrichment relative to wild type (log ratio); higher = more active; in vitro selection for triplet polymerase activity
Outline: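 Mutant libraries were PCR-built and transcribed for each subunit of a heterodimeric triplet polymerase ribozyme and selected for one round in triplicate at −7 °C, frozen, before gel excision of extended constructs and streptavidin-bead capture. Input and output libraries were Illumina-sequenced, keeping genotypes with ≥10 input reads and ≥1 read per output. Fitness is a logarithmic ratio of genotype to wild-type enrichment, in base 2, using inverse-variance-weighted replicate averages.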

U44A A49C G68U G71U G86C C118U C125G and U44A A52G G68C G83C G126C U145C cannot be ordered by “polymerase ribozyme fitness (log ratio)” value: no more than -4.2 for the first, no more than -4.2 for the second.

U44A A60U G92U G141U U145A and U44A A64U C96G cannot be ordered by “polymerase ribozyme fitness (log ratio)” value: no more than -4.2 for the first, no more than -4.2 for the second.

U44A A66G A89C C105U U130G G136U A138C and U44A A91U cannot be ordered by “polymerase ribozyme fitness (log ratio)” value: no more than -4.2 for the first, no more than -4.2 for the second.

U44A A142C and U44A C51A A52C G58A A97U A142C U144G cannot be ordered by “polymerase ribozyme fitness (log ratio)” value: no more than -4.2 for the first, no more than -4.2 for the second.

U44A C54U A115U and U44A C69A A91C G143C cannot be ordered by “polymerase ribozyme fitness (log ratio)” value: no more than -4.2 for the first, no more than -4.2 for the second.

U44A C69U C96U G117A A122U and U44A C72U C76A C85A C93U U127G G133A U151G cannot be ordered by “polymerase ribozyme fitness (log ratio)” value: no more than -4.2 for the first, no more than -4.2 for the second.

Compared with U44A C75A U101G, U44A C75G C96U is higher in “polymerase ribozyme fitness (log ratio)” value: no more than -4.2 for the first, -4.08 for the second.

U44A C75G U104C A119U A122U C149A and U44A C76A A106G C118U cannot be ordered by “polymerase ribozyme fitness (log ratio)” value: no more than -4.2 for the first, no more than -4.2 for the second.

First: U44A C76U
Second: U44A C85G
The “polymerase ribozyme fitness (log ratio)” value of the first is higher: -4.19 for the first, no more than -4.2 for the second.

U44A C85U C87A G117U G141U and U44A C85U U139C cannot be ordered by “polymerase ribozyme fitness (log ratio)” value: no more than -4.2 for the first, no more than -4.2 for the second.

U44A C87U G126A U130G and U44A C93G C95G C99G A106G C108G U148G cannot be ordered by “polymerase ribozyme fitness (log ratio)” value: no more than -4.2 for the first, no more than -4.2 for the second.

U44A C93U A119C and U44A C95A A97U C132A U139G U144C cannot be ordered by “polymerase ribozyme fitness (log ratio)” value: no more than -4.2 for the first, no more than -4.2 for the second.

U44A C95U C99G and U44A C96A A106G C125A U127G G136U cannot be ordered by “polymerase ribozyme fitness (log ratio)” value: no more than -4.2 for the first, no more than -4.2 for the second.

U44A C96G C149U and U44A C103G cannot be ordered by “polymerase ribozyme fitness (log ratio)” value: no more than -4.2 for the first, no more than -4.2 for the second.

U44A C108U and U44A C114U cannot be ordered by “polymerase ribozyme fitness (log ratio)” value: no more than -4.2 for the first, no more than -4.2 for the second.

U44A G48A A52C G140A and U44A G48A G58C G83A cannot be ordered by “polymerase ribozyme fitness (log ratio)” value: no more than -4.2 for the first, no more than -4.2 for the second.

U44A G50A G74U G88U C95G and U44A G50C C85G G136A cannot be ordered by “polymerase ribozyme fitness (log ratio)” value: no more than -4.2 for the first, no more than -4.2 for the second.

U44A G50C U53A C87A A106G A107U and U44A G50C U77A C87A C99U G140C A147U cannot be ordered by “polymerase ribozyme fitness (log ratio)” value: no more than -4.2 for the first, no more than -4.2 for the second.

U44A G58A C85U A120C and U44A G58U A66C U127G U145G cannot be ordered by “polymerase ribozyme fitness (log ratio)” value: no more than -4.2 for the first, no more than -4.2 for the second.

U44A G59A G88C U144G and U44A G65C C99U C131A U145C U151C cannot be ordered by “polymerase ribozyme fitness (log ratio)” value: no more than -4.2 for the first, no more than -4.2 for the second.

U44A G65C G68A G88A G100U C105G and U44A G67C A121G cannot be ordered by “polymerase ribozyme fitness (log ratio)” value: no more than -4.2 for the first, no more than -4.2 for the second.

U44A G67C C76A G94U U148A and U44A G71C A73G G94U A119U G126U A142G cannot be ordered by “polymerase ribozyme fitness (log ratio)” value: no more than -4.2 for the first, no more than -4.2 for the second.

U44A G71C C93G A122U and U44A G80A A121U U144A cannot be ordered by “polymerase ribozyme fitness (log ratio)” value: no more than -4.2 for the first, no more than -4.2 for the second.

First: U44A G81A G86U A89G U134C U146A
Second: U44A G83U
The “polymerase ribozyme fitness (log ratio)” value of the first is lower: no more than -4.2 for the first, -3.94 for the second.

U44A G92U C96A A115C U148G and U44A G117U cannot be ordered by “polymerase ribozyme fitness (log ratio)” value: no more than -4.2 for the first, no more than -4.2 for the second.

U44A U45A G58A C79U C87A C95A U139A G143U G152A and U44A U53A G62A A138G cannot be ordered by “polymerase ribozyme fitness (log ratio)” value: no more than -4.2 for the first, no more than -4.2 for the second.

U44A U53G C105U C116G G141C and U44A U55A U78C A120U cannot be ordered by “polymerase ribozyme fitness (log ratio)” value: no more than -4.2 for the first, no more than -4.2 for the second.

U44A U56A C85G A91C and U44A U78G C129U cannot be ordered by “polymerase ribozyme fitness (log ratio)” value: no more than -4.2 for the first, no more than -4.2 for the second.

Going from U44C C57A C76U C95U C105U U148G to U44C C96U C103G A115C, the “polymerase ribozyme fitness (log ratio)” value rises from no more than -4.2 to -4.19.

Compared with U44C G59A A91U, U44C U61G C93G A121C G141U is lower in “polymerase ribozyme fitness (log ratio)” value: -4 for the first, no more than -4.2 for the second.

U44C U146G U151G and U44G A47C C76A G83A A107U A120U G141C cannot be ordered by “polymerase ribozyme fitness (log ratio)” value: no more than -4.2 for the first, no more than -4.2 for the second.

U44G A47C G58U G59A U90G C108G G117A and U44G A49C C54A G83C G92A cannot be ordered by “polymerase ribozyme fitness (log ratio)” value: no more than -4.2 for the first, no more than -4.2 for the second.

U44G A52C U77C G83A C99A C118A U145G and U44G A52G U55A C85G U135C A147U cannot be ordered by “polymerase ribozyme fitness (log ratio)” value: no more than -4.2 for the first, no more than -4.2 for the second.

U44G A60U C99G U111G G141C and U44G A98U cannot be ordered by “polymerase ribozyme fitness (log ratio)” value: no more than -4.2 for the first, no more than -4.2 for the second.

U44G C63A G68U C87U and U44G C75G C93A U135A cannot be ordered by “polymerase ribozyme fitness (log ratio)” value: no more than -4.2 for the first, no more than -4.2 for the second.

U44G C75U A89G and U44G G50C cannot be ordered by “polymerase ribozyme fitness (log ratio)” value: no more than -4.2 for the first, no more than -4.2 for the second.

U44G G58C C75U G86A G94U C99A and U44G G59U G92C cannot be ordered by “polymerase ribozyme fitness (log ratio)” value: no more than -4.2 for the first, no more than -4.2 for the second.

U44G G80C C93A G94U and U44G G84A G86C C123U G152U cannot be ordered by “polymerase ribozyme fitness (log ratio)” value: no more than -4.2 for the first, no more than -4.2 for the second.

U44G G92U and U44G U45G C54U C87A cannot be ordered by “polymerase ribozyme fitness (log ratio)” value: no more than -4.2 for the first, no more than -4.2 for the second.

U44G U45G C72G U144C A147G and U44G U55A G58C G140C cannot be ordered by “polymerase ribozyme fitness (log ratio)” value: no more than -4.2 for the first, no more than -4.2 for the second.

First: U44G U61G A91C U102A U130G
Second: U44G U134C
The “polymerase ribozyme fitness (log ratio)” value of the first is lower: no more than -4.2 for the first, -4.1 for the second.

For U45A A47C C69G G80C G81A C85U G92A G143U, the “polymerase ribozyme fitness (log ratio)” value was no more than -4.2.
